Experimental data taken from PubChem BioAssay AID686979 (National Center for Advancing Translational Sciences (NCATS), 2013).
The whole screen tested about 420,000 compounds, of which about 50,000 (12%) were called active. Inconclusive results (about 26%) are left out. Calls follow the shape of the dose curve; as a rule, active = well fitted inhibition curve with a large enough effect; inconclusive = small, poorly fitted or top-dose-only effect; inactive = flat fitted curve, though single readings scatter. This is a selection; strong and weak results do not stand in their true shares. More than one record can exist for a structure, and the calls need not agree.

Assay: qHTS for Inhibitors of human tyrosyl-DNA phosphodiesterase 1 (TDP1): qHTS in cells in presence of CPT; also: nearly all actives have a fitted effect of over 55% in size
Conditions: chicken DT40 Tdp1-/-;hTDP1 cells + 20 nM CPT, ATP luminescence, 48 h; series mostly up to 46.2 µM; activity change, negative = growth inhibition: at the top concentration
Outline: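 Cell growth measured by CellTiter-Glo luminescence after a minimum 48 h, 37 C compound exposure with 20 nM CPT in Tdp1-knockout DT40 cells stably expressing hTDP1, seeded 400/well; qHTS titration format.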
% is scaled to controls: 0 for no effect and ±100 for the full control effect; potency is read from the fitted curve at half-maximal effect.

Structure (SMILES)	activity change, negative = growth inhibition	Potency
COc1ccc(-c2cc(C(=O)Nc3c(C)n(C)n(-c4ccccc4)c3=O)no2)cc1	inactive: -14.3%	–
Cc1ccc2nc(-c3c[nH]c4ccccc34)c(Nc3ccc(F)cc3)n2c1	–	active: 14.6 µM
C=CCOc1cccc(CNCCCN2CCOCC2)c1	inactive: 34.3%	–
CC(C)=CCN1CCN(Cc2coc3ccc(C)cc3c2=O)CC1CCO (stereo unspecified)	inactive: 47.1%	–
COc1cc([N+](=O)[O-])ccc1N	inactive: 37.7%	–
CC(C)c1ccc(NC(=O)CCNS(=O)(=O)c2cccc3nsnc23)cc1	inactive: -29.7%	–
O=C(O)CCN1C(=O)C2C3CC(C2C1=O)C1C(c2ccccc2)c2sc(=O)[nH]c2SC31 (stereo unspecified)	inactive: -0.579%	–
O=C(NC1CC1)C1=C[C@@H](c2ccccc2)C[C@@H](OCc2ccc(CO)cc2)O1	inactive: -0.796%	–
Clc1ncc(C#Cc2ccccc2)c2ncncc12	–	active: 1.41 µM
Cc1ccc(N2C(=O)C3NN=C(C(=O)OCc4ccccc4)C3C2=O)cc1 (stereo unspecified)	inactive: 31.5%	–
O=C(COCc1cc(-c2ccc3c(c2)OCO3)on1)N1CCN(c2ccccc2)CC1	inactive: -22.8%	–
CC12CCC(CC1)C(C)(C)O2	–	inactive
CCOC(=O)C1=C(C)Nc2nc(SCC(=O)OC)nn2C1c1cc(F)cc(F)c1 (stereo unspecified)	inactive: -14.7%	–
C(#Cc1ccccc1)CN1CCN(c2ccccn2)CC1	inactive: -1.66%	–
CCCCNC(=O)C1CCC(CNS(=O)(=O)c2ccc(NC(C)=O)cc2)CC1 (stereo unspecified)	inactive: -9.74%	–
Cc1cc(C)c(NC(=O)CSc2nnc(CNC(=O)c3ccccc3F)o2)c(C)c1	inactive: 4.7%	–
COC(=O)[C@@H]1C[C@@]2(O)[C@H](O)[C@H](O)[C@H](O)C[C@H]2N1Cc1ccc(-c2ccccc2)cc1	inactive: -28.8%	–
Cn1nnc2ccccc2c1=O	inactive: 37.4%	–
CC#CCOC(=O)C1=CCCN(C)C1	inactive: 19.9%	–

Structure (SMILES)	activity change, negative = growth inhibition	Potency
COc1cccc(N2CCN(C(=O)c3ccc(CS(=O)c4ccc(Cl)cc4)o3)CC2)c1 (stereo unspecified)	–	active: 0.731 µM
C[C@H](CO)N1C[C@H](C)[C@@H](CN(C)S(=O)(=O)c2ccc(Cl)cc2)OCc2cnnn2CCCC1=O	inactive: 5.59%	–
CCN(CC)C(=O)c1cccc(-c2csc(C(C)(O)c3ccc(OC)cc3)n2)c1 (stereo unspecified)	–	active: 5.8 µM
CC(C)(C)c1ccc(/C=C(\c2nc3ccccc3[nH]2)S(=O)(=O)c2ccccc2)cc1	–	active: 23.1 µM
C[C@H](CO)N1C[C@H](C)[C@@H](CN(C)C(=O)Nc2ccc(N3CCN(C)CC3)cc2)OCc2cnnn2CCCC1=O	inactive: -12%	–
CCCc1cc(=O)n2[nH]c(NCc3c(F)cccc3Cl)nc2n1	inactive: -16.4%	–
COc1ccc(N2C(=S)NC3c4cc(Cl)ccc4OC2(C)C3C(=O)N(C)C)cc1 (stereo unspecified)	–	active: 29.1 µM
c1ccc([C@H]2CN3CCSC3=N2)cc1	inactive: -2.43%	–
COc1ccc(NC(=O)c2ccco2)cc1NC(=O)C(C)(C)Oc1ccc(Cl)cc1	–	active: 18.4 µM
Cc1ccc(C(F)(F)F)cc1NC(N)=S	inactive: 2.78%	–
CC(=O)N1CCC[C@H]1C(=O)O	inactive: -16.7%	–
Cc1ccc(S(=O)(=O)N2CN(CC3CCCO3)c3nc4ccccc4nc32)cc1 (stereo unspecified)	inactive: -15%	–
O=C(Nc1cccc(OC(F)(F)F)c1)C1Cc2c(-c3ccc4c(c3)OCO4)ccnc2O1 (stereo unspecified)	–	active: 16.4 µM
COc1ccc(C2CNC(=O)C2)cc1OC1CCCC1 (stereo unspecified)	–	inactive
C=C[C@]1(C)CC(=O)[C@@]2(O)[C@@]3(C)C(O)CCC(C)(C)C3C(O)C(OC(C)=O)[C@@]2(C)O1 (stereo partly specified)	inactive: 7.89%	–
C/C(N)=C(/C#N)C(=O)CSc1nnc(COc2ccccc2Cl)o1	inactive: -25.3%	–
COC(C[C@H](O)[C@@H](C)[C@H](O)COCc1ccccc1)OC	inactive: -1.15%	–
O=[N+]([O-])c1cccc2cn[nH]c12	–	inactive
O=C(N/N=C(\c1ccccc1)c1ccccn1)c1cccc([N+](=O)[O-])c1	–	active: 1.16 µM

Structure (SMILES)	activity change, negative = growth inhibition	Potency
CCNC(=O)/N=C1/NC(=O)C(C(C)C)O1 (stereo unspecified)	inactive: 30.7%	–
Cc1ccc(/C=N/Nc2ccnc3cc(Cl)ccc23)c(C)c1	–	active: 6.51 µM
O=C(COC(=O)c1cc(Br)ccc1O)NCC1CCCO1 (stereo unspecified)	inactive: 34.8%	–
CN(C)c1nc(N(C)C)nc(N(C)C)n1	–	inactive
CCO[C@@H]1OC(C(=O)N2CCN(Cc3ccccc3)CC2)=C[C@H](C)[C@H]1CCCO	inactive: -7.9%	–
OC1C(O)C(O)C(O)C(O)C1O (stereo unspecified)	–	inactive
CC12CCC(=O)C=C1CCC1C2CCC2(C)C1CCC2(O)C(=O)CO (stereo unspecified)	inactive: -5.81%	–
CC(C)N1CCN(c2ccncc2S(=O)(=O)N2CCCCC2)CC1	inactive: 80.1%	–
CC1CCN(S(=O)(=O)c2ccc3c(c2)N(CC(=O)NCCCN2CCCC(C)C2)C(=O)CS3)CC1 (stereo unspecified)	inactive: -12.2%	–
CCC1COCCS(=O)(=O)N1Cc1ccc(F)cc1 (stereo unspecified)	inactive: 3.78%	–
CCN(CC)CCc1nc(-c2ccccc2)no1	inactive: 2.65% [at 21.1 µM]	–
CCCCc1nc(Cl)c(CO)n1Cc1ccc(-c2ccccc2-c2nn[nH]n2)cc1	inactive: 2.84%	–
O=S(=O)(c1ccccc1)c1nc(-c2ccc(F)cc2)oc1N1CCOCC1	inactive: -8.55%	–
CC[C@]12CCCN3CCc4c(n(c5ccccc45)[C@](O)(C(=O)OC)C1)[C@@H]32	inactive: -15.8%	–
CCCc1nc2c(s1)CCc1onc(-c3cccc([N+](=O)[O-])c3)c1-2	inactive: 32%	–
CC1(C)[C@@H](O)CC[C@]2(C)C3C(=O)C=C4C5C[C@@](C)(C(=O)O)CC[C@]5(C)CC[C@@]4(C)[C@]3(C)CC[C@@H]12 (stereo partly specified)	inactive: 5.38%	–
CCN1CCN(Cc2ccc(NC(=O)c3cc(NC(=O)C4=NN(c5ccccc5)C(=O)C4)cc(OC)c3)cc2C(F)(F)F)CC1	inactive: -1.77%	–
COc1ccc(SCCN2CC[C@@H](C)CCC2=O)cc1	inactive: -26.4%	–
